Each binder was assayed against SARS-CoV-2 Spike (S) protein, recombinant, construct not stated at the place (SARS-CoV-2).

Binder	Kd [nM]	koff [s⁻¹]
A8-Fc (Fc fusion) QVQLVESGGGLVQAGDSLRLSCAASGRDSSRDAMAWFRQAPGKQLELVASITAGGHTNYADSVEGRFTISRDNAKNTVYLQMNALEPEDTAVYRCFADVYGSDRPSWGRGTLVTVSS[human IgG1 Fc cut from this listing]	0.973	0.000201
G11-Fc (Fc fusion) QVQLVESGGGLVQAGDSVRLSCTVSGRSITMYTMDWWRQAPGKGREFVATITSSGKPNYANSVKGRATVDRDNSKNTLYLQMNSLRAEDTAVYSCHALLSTHSELGPFYDYWGQGTLVTVSS[human IgG1 Fc cut from this listing]	0.782	0.000265
A8-G11-Fc bispecific antibody (bispecific antibody) QVQLVESGGGLVQAGDSLRLSCAASGRDSSRDAMAWFRQAPGKQLELVASITAGGHTNYADSVEGRFTISRDNAKNTVYLQMNALEPEDTAVYRCFADVYGSDRPSWGRGTLVTVSSGGGGSGGGGSGGGGSQVQLVESGGGLVQAGDSVRLSCTVSGRSITMYTMDWWRQAPGKGREFVATITSSGKPNYANSVKGRATVDRDNSKNTLYLQMNSLRAEDTAVYSCHALLSTHSELGPFYDYWGQGTLVTVSS[human IgG1 Fc cut from this listing]	0.18	4.16e-05

From patent US20220089695A1 (NEW YORK UNIVERSITY, published 2022)
